Two molecules from US20260176336A1 (MESTAG THERAPEUTICS, published 2026) can be followed below.

Experiment [1] deals with T1, human LTBR endogenously expressed on cells (HepG2, A549, A375, HCC1187, RPMI-7951, primary human breast CAFs) (human, UniProt P36941 31-435). The experiment in a line: cell-based or functional assay.
Experiment [2] deals with T1, human LTBR endogenously expressed on …. In words: cell-based or functional assay. The source holds these as a separate data set.
Experiment [3] has the same target. The experiment in a line: cell-based or functional assay. The source holds these as a separate data set.
Experiment [4] shares this target. In words: cell-based or functional assay. The source holds these as a separate data set.
Experiment [5] has the same target. In words: cell-based or functional assay. The source holds these as a separate data set.
In experiment [6] the target is cynomologus recombinant LTBR (Octet, Example 4.8) (cynomolgus (Macaca fascicularis), UniProt P36941 31-227 (human entry), limits assumed). The experiment in a line: BLI (Octet), cyno LTBR immobilised on ARG sensor, antibody at 25 nM. The protocol: A 2-fold series dilution starting at 50 nM of cynomologus recombinant LTBR was immobilised on the surface of ARG biosensors (Fortebio), followed by FAP/LTBR bispecific at 25 nM. Binding kinetics were studied in a 1× Kinetics buffer where the association was allowed for 180 seconds, followed by dissociation for 100 seconds. Sensor tips were regenerated using ethylene glycol. Data generated were referenced by subtracting a parallel buffer blank, the baseline was aligned with the y-axis, inter-step correlation by alignment against dissociation was performed, and the data were smoothed by a Savitzky-Golay filter in the data analysis software. The processed data were fitted using a 1:1 Langmuir binding model with R\hat{ }2 as a measurement of fitting accuracy. The KD values can be found in.

The target of experiment [7] is T2, cyno FAP (Acro, cat no FAP-C82Q5) (cynomolgus (Macaca fascicularis), UniProt Q12884 26-760 (human entry)).
T2 construct: 'FAP is naturally a dimeric antigen'
The experiment in a line: BLI (Octet), antibody captured by anti-Fc, FAP as analyte; * value outside instrument specifications. The protocol: (§1) Binding to recombinant FAP proteins was investigated by Bio-Layer Interferometry (BLI) using the Octet instrument. Using standard amine coupling chemistry, an anti-Fc antibody was immobilised on the surface of ARG biosensors (Fortebio). The FAP/LTBR bispecific antibodies were loaded on the previously coated surface with anti-Fc capture antibody, followed by a 2-fold series dilution starting at 50 nM of either cyno FAP (Acro, cat no FAP-C82Q5) or human FAP (Acro, cat no FAP-H82Q6). Binding kinetics were studied in a 1× Kinetics buffer where the association was allowed for 200 seconds, followed by dissociation for 400 seconds. Sensor tips were regenerated using 10 mM Glycine pH 2.0. Data generated were referenced by subtracting a parallel buffer blank, the baseline was aligned with the y-axis, inter-step correlation by alignment against dissociation was performed, and the data were smoothed by a Savitzky-Golay filter in the data analysis software. The processed data were fitted using a 1:1 Langmuir binding model with R\hat{ }2 as a measurement of fitting accuracy. The Results are summarised in. Avidity was observed as FAP is naturally a dimeric antigen, and the limited detection by Octet with these molecules has been reached. Species cross-reactivity has been confirmed for all test samples.
A general note: In BLI a coated tip is dipped into the sample, and binding shifts an interference pattern.

In experiment [8] the target is T3, human FAP (Acro, cat no FAP-H82Q6) (human, UniProt Q12884 26-760).
T3 construct: 'FAP is naturally a dimeric antigen'
The description is as above. The protocol: as §1

For experiment [9], the target named is T4, Biotinylated hLTBR-His-Avitag (Acro, cat no LTR-H82E9-25 µg) (human, UniProt P36941 31-227, biotinylated (Avitag)).
T4 construct: bought protein loaded on SA Streptavidin biosensors
In words: BLI (Octet), biotinylated LTBR on SA sensor, antibody (LTBR-bivalent) as analyte. The protocol:
Briefly, Biotinylated hLTBR-His-Avitag (Acro, cat no LTR-H82E9-25 μg) was loaded on SA Streptavidin biosensors (Fortebio) in kinetics buffer (ForteBio) followed by a 2-fold dilution series starting at 50 nM of FAP/LTBR bispecific antibodies. Binding kinetics were studied in a 1× Kinetics buffer where the association was allowed for 100 seconds, followed by dissociation for 300 seconds. Data generated were referenced by subtracting a parallel buffer blank, the baseline was aligned with the y-axis, inter-step correlation by alignment against dissociation was performed, and the data were smoothed by a Savitzky-Golay filter in the data analysis software. The processed data were fitted using a 1:1 Langmuir binding model with R\hat{ }2 as a measurement of fitting accuracy. The KD and R\hat{ }2 values can be found in.

B1: Clone 4.8 (bispecific antibody, human IgG1, kappa)
heavy: QLQLQESGPGLVKPSETLSLTCTVSGGSISSSTYYWGWIRQPPGKGLEWIGSIFYSGNTYYNPSLKSRVTISVDTSKNHFSLKLSSVTAADTAVYYCAREIIEPRPGYFDYWGQGTLVTVSS[human IgG1 constant region with changes not listed]GGGGSGGGGSGGGGSDVQLVESGGGLVQPGGSLRLSCAASGRFFGIYDMYWYRQAPGKQRELVAISTSGGHTNYADSVKGRFTISRDNAKNTVYLQMNSLRPEDTAVYYCNIQRVDAPGFYWGQGTLVTVSSA
light: DIQMTQSPSSLSASVGDRVTITCRASQSISKYLNWYQQKPGKAPKLLIYAASSLQSGVPSRFSGSGSGTDFTLTISSLQPEDFATYYCQQSNSIPRTFGQGTKVEIKRTVAAPSVFIFPPSDEQLKSGTASVVCLLNNFYPREAKVQWKVDNALQSGNSQESVTEQDSKDSTYSLSSTLTLSKADYEKHKVYACEVTHQGLSSPVTKSFNRGEC
For B1, in experiment [1], the “HCC1187 monoculture assay CCL19 read-out EC50” value amounted to 1.4 nM; the “HCC-1187:RPMI7951 (cis-activation) co-culture assay CCL5 read-out EC50” value was 0.0013 nM; the “HCC-1187:RPMI7951 (trans-activation) co-culture assay, CCL19 Read-out EC50” value was found to be 0.01 nM. Further, the “CCL19 upregulation, HCC1187:CAF Co-culture EC50” value in experiment [2] is 0.025 nM. In addition, in experiment [3], the “HepG2 Reporter assay, HepG2:FAP-CHO-K1 Co-culture EC50” value stood at 0.023 nM and the “HepG2 Reporter assay, HepG2 Monoculture EC50” value was 0.22 nM. Besides, in experiment [4], the “chemokine (CCL5) induction in RPMI-7951 EC50” value amounted to 0.0029 nM. Further, the “ICAM1 upregulation in CAFs monoculture assay EC50” value in experiment [5] stood at 0.0012 nM.

B2: Clone 4.9 (bispecific antibody, human IgG1, kappa)
heavy: QLQLQESGPGLVKPSETLSLTCTVSGGSISSSTYYWGWIRQPPGKGLEWIGSIFYSGNTYYNPSLKSRVTISVDTSKNHFSLKLSSVTAADTAVYYCAREIIEPRPGYFDYWGQGTLVTVSS[human IgG1 constant region with changes not listed]GGGGSGGGGSGGGGSDVQLVESGGGLVQPGGSLRLSCKASGTTFSDRAFGWYRQAPGKQRELVATISTAGLTWYDVSVKGRFTISRDNAKNTVYLQMNSLRPEDTAVYYCNTFRGNWGQGTLVTVSS
light: B1 light
notes: FAP:LTBR 2:2 homodimer IgG of FAP mAb (clone 3.5) with C-terminal fused anti-LTBR VHHs (clone 1.6), human IgG1 LALA
Turning to B2, in experiment [1], the “HCC1187 monoculture assay CCL19 read-out EC50” value was determined as 0.047 nM; the “HCC-1187:RPMI7951 (cis-activation) co-culture assay CCL5 read-out EC50” value amounted to 0.0013 nM; the “HCC-1187:RPMI7951 (trans-activation) co-culture assay, CCL19 Read-out EC50” value is 0.011 nM. Moreover, in experiment [2], the “CCL19 upregulation, HCC1187:CAF Co-culture EC50” value stood at 0.019 nM and the “CCL19 upregulation, HCC1187 Monoculture EC50” value came to 0.38 nM. The Kd in experiment [6] was found to be 8.65 nM. In addition, in [3], the “HepG2 Reporter assay, HepG2:FAP-CHO-K1 Co-culture EC50” value was 0.006 nM and the “HepG2 Reporter assay, HepG2 Monoculture EC50” value turned out to be 0.07 nM. Besides, the “chemokine (CCL5) induction in RPMI-7951 EC50” value in experiment [4] stood at 0.0018 nM. Further, the “ICAM1 upregulation in CAFs monoculture assay EC50” value in experiment [5] worked out at 0.0022 nM. Besides, in [7], the binding result is listed as “binds”. Moreover, the binding result in [8] is “binds”. Also, in [9], the Kd is 0.17 nM.
